From the supplement of paper PMC10126150
Values marked as one replicate rest on one cluster of the flow cell; about a third of the high ones do not repeat.

System: ATP
Assay: switch fluorescence ratio, 500 uM ATP over buffer (Cy3 cluster intensity, sum of 5 cycles each) (fold (ratio)); higher = stronger signal-on switching upon ATP binding; sequences stand for … in TCGTCGGCAGCGTCAGATGTGTATAAGAGACAGTTTTTTTTTTTTTTTTTTTTTTTTT…TC
Settings: aptamer strand: ATP DNA aptamer (quencher-CACCTGGGGGAGTATTGCGGAGGAAGG + anchor), 100 nM annealed; ATP concentration: 500 uM; one replicate
Summary of the method: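 Switching-strand clusters labelled with Cy3 on a modified Illumina MiSeq flow-cell were annealed to 100 nM quencher-labelled ATP aptamer, imaged in selection buffer, and re-imaged after 15 min with 500 uM ATP at 22 °C. This was done over five cycles with NaOH stripping and re-annealing in between. The fluorescence ratio is summed target-cycle over summed buffer-cycle Cy3 intensity per cluster, averaged per switch-domain sequence, excluding clusters outside 100-1000 RFU.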
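Note: ATP exposure 15 min at 22 °C before imaging.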

Sequence | switch fluorescence ratio
ACAGGTTTGT | 0.973
TGACTGTTGT | 1
ATGAGCACTA | 1.03
TGGTACCTTA | 1.02
GGATTCATTA | 0.965
TCTAAACTGT | 1
AGGTTCTTAA | 0.991
AGAGATAGTC | 1.02
TGAAGTTTC | 1.23
GGTGTCGACG | 1.03
GTGGACTCGA | 1.02
CTGCCGTCGC | 1.02
TATACAAATA | 1.03
GTAGTGATAG | 1.78
TGGACGGGTG | 1.03
CTATTACGGG | 0.971
ATGCGACGTA | 0.948
GTGTTCCGCT | 1.07
AACCAGGTTA | 1.03
TATGTCCCTG | 0.971
TTAGAGCCA | 1.02
CAACTGTCGC | 1.03
CTACTCGGCG | 1.16
TTTTGCGTAG | 1.05
GGCCTCATAT | 0.994
GAATGCGCTT | 1.01

Sequence | switch fluorescence ratio
CCCAGAATTG | 1
TATTGTCAGC | 1
TTTACTCGG | 1.02
GCCCGCGAAA | 1.12
GCGGTTTGGT | 0.953
GCTATAGTTG | 1.05
GACACGTAGA | 1.13
CGACGGGTAG | 1.02
TAGCGAATCC | 1.03
GTTATAGTG | 1.03
TAGATGAAGG | 0.98
GTGTTCCGA | 1.02
GTGACCATCG | 0.994
GCCTGTTGGC | 0.97
CTCCTAAGAT | 1.15
AGTATAAG | 1
GCCCACGACC | 1.31
AATGTGTGCG | 0.973
TAGCTCATTT | 0.985
AAATTACTT | 1.03
GTCACTCTG | 1
GGGCCCATGG | 1.02
ACGTGATTAA | 1.01
CAGCCTCGGT | 1.06
CTGCCCGACC | 1.39
TCCAGATCCC | 1.05

Sequence | switch fluorescence ratio
TGTGGAGTGT | 0.976
GAAACACTCT | 1
AGGGAATAAG | 1.03
AGGGTCAATA | 0.972
GAATGACGT | 1.01
TTCTGCTACT | 1.17
TCGTAGCCAC | 1.12
CCTCGGGTCT | 1.17
TTTTTAGCCT | 0.977
ACGTGTCTCG | 1.04
ATATGTATTC | 0.974
ACTGGAGTAA | 0.892
AGGTCAAGAG | 1.02
GCGCTGGGGA | 1.04
CTTAATCCTT | 1.07
TGTGTTTTA | 1.02
GCGGATTTTT | 0.968
CTCATCCTGT | 1.05
TTTGGTTTCT | 1
AGAGACTGAT | 1.01
CCTTTGAAAT | 1.33
ATAAGATTCC | 1.19
CCGGATAGTT | 0.998
AATCATCCGA | 1.03
TCCTATACAT | 1.02
TAAACTAGGG | 1.07

Sequence | switch fluorescence ratio
TTATAGTAAC | 1.02
CTCGAGCCGA | 1.05
AGGGAGCCAG | 0.985
GTTACGCCCG | 0.963
CATCGTGGGG | 1.01
TTCGACTAGT | 0.996
ACTGCAGGGG | 1.07
AGGGTGATGT | 0.989
ATCTTGTTCG | 0.987
GTCAGCGATG | 1.01
GCCACTTTTC | 1.01
AGGCTGGGAA | 1.01
CCATGTTTTT | 1.05
CATAAAATAT | 0.988
CTTTCAGCGG | 0.983
CCAAGTGGGT | 1
CGCATGAACG | 1.04
TAAGGCGGCA | 1.05
TATTGTGACG | 1.15
GACACTCTAT | 1.06
AGAACAGAAA | 1.01
GCACCCCCAT | 1.77
TTCAGTATAA | 1.12
CAAGTCAGGA | 0.931
CGTGACTGGA | 1.02
TCTGAAGTTG | 1.05

Sequence | switch fluorescence ratio
AGTCGAGGTT | 1.01
CAATGATTGC | 1.02
GGTTCGGCTT | 0.992
AGAGTTCGAT | 1.02
TTCGATATTG | 1.01
TGTAAATCGT | 1.01
CTTTTTTAGG | 1.32
TAGGCCTAGG | 0.941
GATTCGTAGT | 0.988
AGGCGGGTG | 1.02
ATATAACGTA | 1.11
GGGACACCCT | 1.14
GTATGCAAGT | 0.962
AGCCCTTTGC | 1.02
TGAGGCAAGC | 2.64
TTTCATCGTT | 1
TTGAAATGGG | 1.04
AGTTTGCTAT | 1.03
TGTTTTACGT | 1.03
CCTCTCGTTC | 3.43
CCATACTTTG | 0.973
AGGTCTGGTT | 0.964
AAGTATGTAG | 1.07
GAGGCCACTT | 1.01
ACCGCACTT | 1.57
TCCCTAAAGG | 1.14

Sequence | switch fluorescence ratio
CTCAAGTGT | 1.01
CTAGGAAGTG | 1.02
ACTGTAAAGA | 1.06
AAGAAGATG | 1.13
TTCACAAGGG | 1
CAAGATTTAG | 0.991
GACTCTCTAA | 1.05
ACGTCATG | 1.51
ATGTCGGACG | 0.984
GGGGATCCAA | 1.07
GGTAAACCCC | 0.994
TAAATACCAA | 1.07
TCTAACAGAT | 1
ACGTTAATTT | 1.16
CGAGTGACTC | 1.01
AGAAATAGTC | 1.13
TGCAGGTGAT | 0.951
TGGATATTCT | 0.969
TGCTTATGAA | 1.03
ATAAAGCA | 1.02
TTAGTCTTGT | 1.03
ATAGCTTGGA | 0.984
TTATAGGAAA | 0.986
GCTCAGGATC | 1.03
ACCAAAGCCC | 1.03
TGGACTGTTT | 1.06

Sequence | switch fluorescence ratio
TTCACTACCC | 1.2
CGTGGTTCAA | 0.951
ATGCACTATG | 1.01
TCTAAGAGAA | 0.996
GCCCTTGTGA | 1.02
TAGGCGGGGC | 1.03
ATACGAAGGT | 1.02
TTATTTAAGA | 0.988
AATAGCGCCT | 1.02
ACATCGATTA | 1.04
GCACTACTGA | 1.18
GTTGGCATT | 0.974
ATCAATAGGG | 0.964
AATGTGCGCA | 0.987
TAACAGTTCT | 0.971
ATTCAGCTTT | 0.964
GCTCTCATCT | 0.989
TTGAAAGTCA | 1.02
CGATGCCAGG | 1.37
TGTTAACAC | 1.06
ATAGCGGATC | 1.03
CTGTACGTGG | 1.03
TTTTGTGTAG | 1.06
TCTAATATCC | 0.956
ATGTTTTCGC | 0.962
CAGATGAGAT | 0.98

Sequence | switch fluorescence ratio
GATCTGATCG | 0.997
CGCCTCTCTA | 1.03
GGCTAATTT | 0.989
ACGGTTGCTA | 1.01
AGTCCAAGTT | 0.975
GCGTGAAAGT | 0.943
CAGTATCAGC | 1.02
GGGAAAACG | 1.03
TTTTGCGTG | 0.992
CTGACCTACA | 1.31
AGTTCACGTG | 1.06
ATCACAGCTT | 1.01
TGATTAATCG | 0.987
CTAGTATGTG | 0.914
ACAATGGGTT | 1.02
CCATAAAATG | 1.02
TGAATGAGTC | 0.996
TCATTCTTG | 0.965
GGATCCATGC | 1.03
